Measurements from the BET-seq Pho4 binding data (Le et al. 2018).
The list shows a part of the results. These are noisy estimates, calculated here from bound and input reads.

Target: T1, Pho4 (S. cerevisiae) (UniProt P07270)
T1 sequence: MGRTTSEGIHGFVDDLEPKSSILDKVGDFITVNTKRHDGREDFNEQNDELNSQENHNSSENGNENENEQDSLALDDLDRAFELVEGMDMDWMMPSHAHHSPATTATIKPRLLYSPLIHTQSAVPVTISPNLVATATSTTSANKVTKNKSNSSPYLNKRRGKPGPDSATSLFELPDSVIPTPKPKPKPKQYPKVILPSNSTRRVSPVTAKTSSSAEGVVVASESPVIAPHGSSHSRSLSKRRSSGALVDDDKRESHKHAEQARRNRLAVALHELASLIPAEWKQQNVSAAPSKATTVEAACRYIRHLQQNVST
Assay: relative binding free energy (BET-seq); higher = weaker binding
Conditions: reference: library average

| Sequence | relative binding free energy [kcal/mol] |
| --- | --- |
| GGTCACACGTGGTTGT | -0.06 |
| TATCACACGTGTTTGT | -0.06 |
| CGTGGCACGTGGGGCC | -0.39 |
| ATGTCCACGTGGGGTG | -0.05 |
| CTGGACACGTGGTAAT | 0.06 |
| AGTGGCACGTGTTATG | -0.05 |
| GAATTCACGTGTAGGT | 0.33 |
| TCTGTCACGTGGGTAT | 0 |
| CTGTACACGTGTGATT | 0.17 |
| TTGTCCACGTGGGTTA | 0 |
| AACTGCACGTGGTGGG | -0.14 |
| GATATCACGTGTATGG | 0.07 |
| TAAATCACGTGGAGTT | 0.24 |
| TGAGGCACGTGAAGAT | 0.32 |
| GGGCGCACGTGATTGG | 0.15 |
| TTTTACACGTGGAGCA | 0.12 |
| ATTTGCACGTGATGCG | 0.15 |
| CTTATCACGTGTGGGG | 0.23 |
| TGTGTCACGTGCGAAG | 0.04 |
| ATTGTCACGTGACATG | 0.12 |
| ATATGCACGTGGTTAA | -0.12 |
| TATTGCACGTGATGGA | 0.05 |
| AGTTTCACGTGTAGCG | 0.23 |
| GTATACACGTGGCGTG | -0.11 |
| TGTGGCACGTGGTAAG | -0.16 |

| Sequence | relative binding free energy [kcal/mol] |
| --- | --- |
| GGGGTCACGTGCACGT | 0.03 |
| AGCATCACGTGTGGTA | 0.24 |
| GGCATCACGTGTCGGG | 0.33 |
| TTTGACACGTGAGATT | 0.18 |
| TACTTCACGTGGGGAG | 0.23 |
| AAAATCACGTGTTTTA | 0.15 |
| CTGCACACGTGGTGTG | -0.09 |
| TTACGCACGTGAGGTT | 0.3 |
| TGCGGCACGTGGTCGT | -0.27 |
| TCTGGCACGTGGAGGT | -0.11 |
| CTGTGCACGTGGCGGG | -0.02 |
| TGCTACACGTGGGATT | 0.03 |
| TGTACCACGTGAGTTT | 0.11 |
| TTATTCACGTGTGAAT | 0.27 |
| CAGGCCACGTGTGTGG | -0.04 |
| TTGGACACGTGGTGAG | -0.01 |
| CATGTCACGTGTTGGA | 0.18 |
| TTCGGCACGTGTGACT | 0.11 |
| CTTTTCACGTGATTTA | 0.44 |
| AGATGCACGTGGTATT | -0.08 |
| AGCGTCACGTGATTGT | 0.21 |
| TAAGGCACGTGTTCAT | -0.07 |
| ATTGTCACGTGGTAAT | 0.02 |
| CGGCACACGTGTTTGT | 0.09 |
| AAGGTCACGTGACGTG | 0.11 |

| Sequence | relative binding free energy [kcal/mol] |
| --- | --- |
| ATTTACACGTGTAATA | 0.21 |
| GCAAGCACGTGGTGGC | 0.03 |
| TGTGACACGTGCAGGG | 0.02 |
| AGAGACACGTGTAATG | 0.26 |
| TGTATCACGTGTCGGT | 0.21 |
| GTGGCCACGTGGATTG | -0.07 |
| GGTTGCACGTGAGGCG | 0.32 |
| TAAGTCACGTGGTTAC | 0.15 |
| TAGGCCACGTGGCTGG | -0.14 |
| GTTCACACGTGGGTTT | 0.06 |
| ATGGACACGTGTGGTC | 0.16 |
| ATAGTCACGTGTGGGC | 0.23 |
| AGGCACACGTGGGGGT | -0.19 |
| TTTCTCACGTGTTTTC | 0.18 |
| TGATTCACGTGGCCTG | 0.21 |
| AGGGGCACGTGGGCCC | -0.13 |
| GGTTCCACGTGTAGGA | 0.07 |
| CTTGGCACGTGGTACT | -0.16 |
| TGGTTCACGTGGGGAA | 0.19 |
| GGTTTCACGTGTAGGC | 0.28 |
| CTTTACACGTGGTGAT | -0.03 |
| GTGTTCACGTGGGGAT | 0.16 |
| GGTCTCACGTGATAAT | 0.46 |
| TTGGGCACGTGGAGCC | 0.15 |
| GTTGTCACGTGGCGTC | 0.14 |

| Sequence | relative binding free energy [kcal/mol] |
| --- | --- |
| TGGCTCACGTGGGTCT | 0.19 |
| GTGTGCACGTGGTTTG | 0.05 |
| TAATGCACGTGTTGAG | -0.04 |
| GTGCACACGTGGGTGG | -0.04 |
| GGGGCCACGTGCGGAT | -0.04 |
| TGTTGCACGTGAAAGA | 0.23 |
| TGAGTCACGTGGTGGC | 0.06 |
| AATGTCACGTGTGTAA | 0.21 |
| CAGTGCACGTGTGGTG | 0.1 |
| TTCGTCACGTGGGAAA | 0.16 |
| CGGGCCACGTGGTCGG | -0.1 |
| TTAATCACGTGTGCTG | 0.09 |
| AGGTACACGTGAGTGA | 0.27 |
| CTGGTCACGTGTTTGG | 0.08 |
| GATAGCACGTGTTTAT | -0.02 |
| GTAGGCACGTGTCTAT | 0.03 |
| TGTGACACGTGGACTT | -0.05 |
| CAAGTCACGTGTAGGG | 0.1 |
| GGTGGCACGTGTACGA | -0.08 |
| GTATACACGTGTGTTT | 0.04 |
| TCTGTCACGTGATAGT | 0.21 |
| TTATACACGTGGCGTG | -0.06 |
| TTTTGCACGTGTGAGC | 0.17 |
| GGTGGCACGTGAAGGG | 0.31 |
| CTTTTCACGTGGGGGG | 0.18 |

| Sequence | relative binding free energy [kcal/mol] |
| --- | --- |
| TGACGCACGTGTTGTT | -0.03 |
| GAAGGCACGTGGGATA | -0.1 |
| TGAAACACGTGGGTAA | 0.02 |
| CGAGTCACGTGTTTTG | 0.12 |
| CGTTTCACGTGGCTGA | 0.25 |
| ATTTGCACGTGTCTGG | 0.03 |
| TTACGCACGTGTGTTG | -0.13 |
| AGAGTCACGTGGGTGT | 0.02 |
| AGAGACACGTGCTTTG | 0.15 |
| TTGTACACGTGAGGGA | 0.26 |
| AGAATCACGTGGTGGG | 0.19 |
| TGTCGCACGTGTGTCT | -0.11 |
| TGACGCACGTGGTTAG | -0.14 |
| AGTGGCACGTGTTAAG | -0.03 |
| TTTGTCACGTGGTCTC | 0.04 |
| AGGTCCACGTGTAGGG | 0.02 |
| AAGGACACGTGGTGGC | -0.08 |
| TGAGTCACGTGCATTG | 0.05 |
| TGTATCACGTGCGCTT | 0.01 |
| TAGTGCACGTGGGTCT | -0.15 |
| TGTATCACGTGTGGAT | 0.11 |
| GTGTACACGTGAGTCA | 0.28 |
| ACTGTCACGTGTTTGT | -0.03 |
| TGGCTCACGTGGAAGG | 0.28 |
| ATGTCCACGTGGTATG | -0.16 |

| Sequence | relative binding free energy [kcal/mol] |
| --- | --- |
| TATGACACGTGGCATG | -0.16 |
| GATGGCACGTGTTTTA | 0.12 |
| TTTCTCACGTGAAAGT | 0.51 |
| TTACGCACGTGGTAGA | -0.12 |
| GTATGCACGTGAGATG | 0.28 |
| TTAGTCACGTGTAGTT | 0.16 |
| ATTGTCACGTGCGTAG | 0.07 |
| ATTATCACGTGGGCGG | -0.06 |
| AGAGTCACGTGTCGGT | -0.02 |
| ATGATCACGTGAGGAG | 0.13 |
| TGGGACACGTGGGCTT | -0.21 |
| TCCAGCACGTGGGGTG | -0.29 |
| TTCGTCACGTGAGTTG | 0.27 |
| TATTGCACGTGTCGTA | -0.18 |
| AAGGACACGTGGACGG | 0.17 |
| CAGCGCACGTGTGGTT | -0.04 |
| ACGTGCACGTGTGTGT | -0.01 |
| AGGCACACGTGGGTCT | 0.01 |
| TCTACCACGTGTGGGT | 0.13 |
| GGTCTCACGTGCTATG | 0.31 |
| AGGTTCACGTGATTTG | 0.43 |
